# According to the supplement of paper PMC8728848:
# Some of the results follow.
# What was measured:
# Test in all cases: glycan array binding signal (z-score within array); higher = stronger binding
# Settings in all cases: glycan notation: IUPAC condensed, linker removed
# [1] = target: Neu5Ac(a2-6)Gal(b1-4)GlcNAc(b1-2)Man(a1-3)[Man(a1-6)]Man(b1-4)GlcNAc(b1-4)GlcNAc
# In short: (§1)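 The Consortium for Functional Glycomics database supplied 3228 glycan arrays, of which those lacking an available protein sequence were dropped. The binding signal, a within-array Z-score, was averaged across arrays of the same protein sequence and across linkers. Negative scores can be read as non-binding.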
# [2] = target: Neu5Ac(a2-6)Gal(b1-4)GlcNAc(b1-2)Man(a1-3)[Neu5Ac(a2-3)Gal(b1-4)GlcNAc(b1-2)Man(a1-6)]Man(b1-4)GlcNAc(b1-4)GlcNAc
# In short: as §1
# [3] = target: Neu5Ac(a2-6)Gal(b1-4)GlcNAc(b1-2)Man(a1-3)[Neu5Ac(a2-6)Gal(b1-4)GlcNAc(b1-2)Man(a1-6)]Man(b1-4)GlcNAc(b1-4)GlcNAc
# In short: as §1
# [4] = target: Neu5Ac(a2-6)Gal(b1-4)GlcNAc(b1-2)Man(a1-3)[Neu5Ac(a2-6)Gal(b1-4)GlcNAc(b1-2)Man(a1-6)]Man(b1-4)GlcNAc(b1-4)[Fuc(a1-6)]GlcNAc
# In short: as §1
# [5] = target: Neu5Ac(a2-6)Gal(b1-4)GlcNAc(b1-2)Man(a1-6)Man(b1-4)GlcNAc(b1-4)GlcNAc
# In short: as §1
# [6] = target: Neu5Ac(a2-6)Gal(b1-4)GlcNAc(b1-2)Man(a1-6)[Gal(b1-4)GlcNAc(b1-2)Man(a1-3)]Man(b1-4)GlcNAc(b1-4)GlcNAc
# In short: as §1
# [7] = target: Neu5Ac(a2-6)Gal(b1-4)GlcNAc(b1-2)Man(a1-6)[GlcNAc(b1-2)Man(a1-3)]Man(b1-4)GlcNAc(b1-4)GlcNAc
# In short: as §1
# [8] = target: Neu5Ac(a2-6)Gal(b1-4)GlcNAc(b1-2)Man(a1-6)[Man(a1-3)]Man(b1-4)GlcNAc(b1-4)GlcNAc
# In short: as §1
# [9] = target: Neu5Ac(a2-6)Gal(b1-4)GlcNAc(b1-2)[Neu5Ac(a2-6)Gal(b1-4)GlcNAc(b1-4)]Man(a1-3)[GlcNAc(b1-4)][Neu5Ac(a2-6)Gal(b1-4)GlcNAc(b1-2)[Neu5Ac(a2-6)Gal(b1-4)GlcNAc(b1-6)]Man(a1-6)]Man(b1-4)GlcNAc(b1-4)GlcNAc
# In short: as §1
# [10] = target: Neu5Ac(a2-6)Gal(b1-4)GlcNAc(b1-2)[Neu5Ac(a2-6)Gal(b1-4)GlcNAc(b1-4)]Man(a1-3)[GlcNAc(b1-4)][Neu5Ac(a2-6)Gal(b1-4)GlcNAc(b1-4)Man(a1-6)]Man(b1-4)GlcNAc(b1-4)GlcNAc
# In short: as §1
# [11] = target: Neu5Ac(a2-6)Gal(b1-4)GlcNAc(b1-2)[Neu5Ac(a2-6)Gal(b1-4)GlcNAc(b1-6)]Man(a1-6)[Neu5Ac(a2-6)Gal(b1-4)GlcNAc(b1-2)Man(a1-3)][GlcNAc(b1-4)]Man(b1-4)GlcNAc(b1-4)GlcNAc
# In short: as §1
# [12] = target: Neu5Ac(a2-6)Gal(b1-4)GlcNAc(b1-3)Gal(b1-3)GlcNAc
# In short: as §1
# [13] = target: Neu5Ac(a2-6)Gal(b1-4)GlcNAc(b1-3)Gal(b1-4)GlcNAc
# In short: as §1
# [14] = target: Neu5Ac(a2-6)Gal(b1-4)GlcNAc(b1-3)Gal(b1-4)GlcNAc(b1-2)Man(a1-3)[Neu5Ac(a2-6)Gal(b1-4)GlcNAc(b1-3)Gal(b1-4)GlcNAc(b1-2)Man(a1-6)]GalNAc
# In short: as §1
# [15] = target: Neu5Ac(a2-6)Gal(b1-4)GlcNAc(b1-3)Gal(b1-4)GlcNAc(b1-3)Gal(b1-4)GlcNAc
# In short: as §1
# [16] = target: Neu5Ac(a2-6)Gal(b1-4)GlcNAc(b1-3)Gal(b1-4)GlcNAc(b1-3)Gal(b1-4)GlcNAc(b1-2)Man(a1-3)[Neu5Ac(a2-6)Gal(b1-4)GlcNAc(b1-3)Gal(b1-4)GlcNAc(b1-3)Gal(b1-4)GlcNAc(b1-2)Man(a1-6)]GalNAc
# In short: as §1
# [17] = target: Neu5Ac(a2-6)Gal(b1-4)GlcNAc(b1-3)Gal(b1-4)GlcNAc(b1-3)GalNAc
# In short: as §1
# [18] = target: Neu5Ac(a2-6)Gal(b1-4)GlcNAc(b1-3)Gal(b1-4)GlcNAc(b1-3)[Neu5Ac(a2-6)Gal(b1-4)GlcNAc(b1-3)Gal(b1-4)GlcNAc(b1-6)]GalNAc
# In short: as §1
# [19] = target: Neu5Ac(a2-6)Gal(b1-4)GlcNAc(b1-3)Gal(b1-4)GlcNAc(b1-6)[Gal(b1-3)]GalNAc
# In short: as §1
# [20] = target: Neu5Ac(a2-6)Gal(b1-4)GlcNAc(b1-3)Gal(b1-4)[Fuc(a1-3)]GlcNAc(b1-3)Gal(b1-4)[Fuc(a1-3)]GlcNAc
# In short: as §1
# [21] = target: Neu5Ac(a2-6)Gal(b1-4)GlcNAc(b1-3)GalNAc
# In short: as §1
# [22] = target: Neu5Ac(a2-6)Gal(b1-4)GlcNAc(b1-3)[Neu5Ac(a2-6)Gal(b1-4)GlcNAc(b1-6)]GalNAc
# In short: as §1
# [23] = target: Neu5Ac(a2-6)Gal(b1-4)GlcNAc(b1-6)GalNAc
# In short: as §1
# [24] = target: Neu5Ac(a2-6)Gal(b1-4)GlcNAc(b1-6)[Gal(b1-3)GlcNAc(b1-3)]Gal(b1-4)Glc
# In short: as §1
# [25] = target: Neu5Ac(a2-6)Gal(b1-4)GlcNAc(b1-6)[Gal(b1-3)]GalNAc
# In short: as §1
# [26] = target: Neu5Ac(a2-6)Gal(b1-4)GlcNAc6S
# In short: as §1
# Neu5Ac(a2-6)GalNAc = target: Neu5Ac(a2-6)GalNAc
# In short: as §1
# [27] = target: Neu5Ac(a2-6)GalNAc(b1-4)GlcNAc
# In short: as §1
# [28] = target: Neu5Ac(a2-6)GalNAc(b1-4)GlcNAc6S
# In short: as §1
# [29] = target: Neu5Ac(a2-6)GlcNAc(b1-4)GlcNAc
# In short: as §1
# [30] = target: Neu5Ac(a2-6)GlcNAc(b1-4)GlcNAc(b1-4)GlcNAc
# In short: as §1
binder,measurement,setting,value
PfulAvr4 2 (Pseudocercospora fuligena) (protein) HHHHHHDYKDDDDKAKPIKPFACPPKDFTTTKCQGPVDCLYANPLSCLGYIQCVCDDDACSTATPYAKSCPTGLAWVEKLKRCDGIKKSACPKKMYEGS,glycan array binding signal (z-score),[1],-0.122
same,glycan array binding signal (z-score),[2],-0.075
same,glycan array binding signal (z-score),[3],-0.108
same,glycan array binding signal (z-score),[4],-0.193
same,glycan array binding signal (z-score),[5],-0.214
same,glycan array binding signal (z-score),[6],-0.34
same,glycan array binding signal (z-score),[7],-0.14
same,glycan array binding signal (z-score),[8],-0.119
same,glycan array binding signal (z-score),[9],-0.331
same,glycan array binding signal (z-score),[10],-0.269
same,glycan array binding signal (z-score),[11],-0.267
same,glycan array binding signal (z-score),[12],-0.344
same,glycan array binding signal (z-score),[13],-0.179
same,glycan array binding signal (z-score),[14],-0.204
same,glycan array binding signal (z-score),[15],-0.142
same,glycan array binding signal (z-score),[16],0.29
same,glycan array binding signal (z-score),[17],-0.369
same,glycan array binding signal (z-score),[18],0.595
same,glycan array binding signal (z-score),[19],-0.385
same,glycan array binding signal (z-score),[20],-0.159
same,glycan array binding signal (z-score),[21],0.204
same,glycan array binding signal (z-score),[22],-0.185
same,glycan array binding signal (z-score),[23],-0.148
same,glycan array binding signal (z-score),[24],-0.283
same,glycan array binding signal (z-score),[25],-0.189
same,glycan array binding signal (z-score),[26],-0.248
same,glycan array binding signal (z-score),Neu5Ac(a2-6)GalNAc,0.086
same,glycan array binding signal (z-score),[27],-0.385
same,glycan array binding signal (z-score),[28],-0.323
same,glycan array binding signal (z-score),[29],-0.412
same,glycan array binding signal (z-score),[30],3.75
